# ± gives the standard deviation of the averaged measurements. Some of the results follow.
# Test system: PfAP2-EXP AP2 domain (GST-tagged)
# Test: gcPBM binding intensity (ln(normalized median fluorescence intensity)); higher = stronger DNA binding
# Method in brief: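 Binding intensity values are the highest Masliner-normalised natural-log median intensity among replicate spots of either probe orientation. The binding step lasted 1 h in 1× PBS with 1% milk, 0.2 mg/ml BSA, 0.5% salmon testes DNA and 0.03% Triton X-100, using GST-tagged P. falciparum DNA-binding domains expressed in E. coli on an Agilent 4 × 180k array of primer-extended double-stranded 36-bp intergenic genomic probes plus negative controls. Alexa488 anti-GST antibody and a 488 nm scan detected bound protein.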
row,Sequence,gcPBM binding intensity (ln)
1,GTATCAAAAGAATACACACACACATACCTATAAATA [CACACA_site7737],8.53 ± 0.55
2,AAAGGAAAAAAAGTAGCACACAAATATTTATAATAT [CACACA_site8772],8.7 ± 0.56
3,TGATATCTTAAGAAATGTACAAAGATATAACCATTT [XGTACX_site1913],8.56 ± 0.49
4,ATTTTAATAAAATATGTACACACATACACCCATATA [CACACA_site8326],8.84 ± 0.39
5,CATACATAAATATAAACATGCATATATTTTTTTTAT [TGCATGCA_site616],8.46 ± 0.41
6,TAAATAAAAAAAAATACACACATCTATATAAAATAT [CACACA_site3774],8 ± 0.042
7,TATACTCATGGACACACACACATACACAGACATACA [CACACA_site5024],8.82 ± 0.53
8,AAACGGGAGAAATAAAAATAAAAATAATAAAACAAA [XGTACX_negctrl_site586],8.67 ± 0.51
9,TTCATATATAATTGTACACACAAAAACGACATTGTG [CACACA_site2074],8.76 ± 0.37
10,TAAATATGAGGGAACACACACATGATATATAAATTC [CACACA_site2400],8.81 ± 0.43
11,GGAAATAAAATTAAATGTACGAAAACTCATTAAATT [XGTACX_site4274],8.29 ± 0.24
12,ATATTAAAAAGGAAATGTACGTAATGAAGATCAAGT [XGTACX_site3138],9.26 ± 0.35
13,TAAATAAAAAGACACACACACATATTTATATTTATA [CACACA_site7135],8.57 ± 0.4
14,GAGAAAAATATATACACACACATAAATATATACATA [CACACA_site1895],8.62 ± 0.39
15,TAAATTGGTGCAAAGTGTACATATATATCTTTCCTA [XGTACX_site5458],8.67 ± 0.17
16,AAATATCAACTCAAATGTACAAATCACAAAAATGTA [XGTACX_site5344],8.45 ± 0.51
17,ATATATGATGTATTTGTGCACATATATATATTATTA [GTGCAC_site9471],8.75 ± 0.028
18,TTAAAAAACATTTGAACATGCAATTGTATATGTAGA [TGCATGCA_site334],8.82 ± 0.41
19,TATACACATATATATAGTACATATATAATTTACTAT [XGTACX_site1849],8.44 ± 0.22
20,AGTATTCTAATTTTTAAACACACAAATATAAATAAG [CACACA_site9029],8.44 ± 0.38
21,AGGGTTCATATATTAACACACACATACATATTATAT [CACACA_site8959],8.71 ± 0.49
22,TATTTATTAAGACACACACACACACGCACAAAATAA [CACACA_site6254],9.11 ± 0.25
23,ATTGTTACATAAAATGCACACTTTCAAATATGCTAA [CACACA_site5600],8.5 ± 0.24

row,Sequence,gcPBM binding intensity (ln)
1,ATATATACCTATATTACACACTTCTTATTCTAAGAA [CACACA_site7421],8.38 ± 0.35
2,AAACAAAAGGAAAACATATATATATTAAATGTATAT [CACACA_negctrl_site1663],8.65 ± 0.45
3,TGAAATTAAATATATACACACATATATATTTATATG [CACACA_site3516],8.13 ± 0.33
4,TTTTTTTTTCTCCATACACACTTGATAAAACTTTTT [CACACA_site4512],8.41 ± 0.3
5,ATTTATATTCCAATATGTACATATTTTCGTATAACC [XGTACX_site8507],8.88 ± 0.35
6,ATTACAAATTCTTTCAGTACATATAAAGAAAAAAAT [XGTACX_site7786],8.335 ± 0.021
7,ATTTAGAATGTTCCTACACACCAAATTTAAGGGTGC [CACACA_site5320],8.48 ± 0.46
8,GCAAAATAACAATGTTACACTTATAAAATTGAGGCA [GTGCAC_negctrl_site68],8.36 ± 0.53
9,AGGCTATAATACCATACACACATTTATAAAATAACA [CACACA_site6990],8.5 ± 0.49
10,TAAAAATTTGATCAAACACACGTTGCATAAATTATA [CACACA_site6040],8.74 ± 0.57
11,TTTTTGTAAACCTACTTCATAATTATTTATATCTAT [XGTACX_negctrl_site599],8.63 ± 0.52
12,ACATATATTTATATATGTACATATGATATATACATA [XGTACX_site6122],8.2 ± 0.23
13,CTTTTGTATATTATATGTACACACAATAAGTTAATA [XGTACX_site1684],8.45 ± 0.34
14,AATTAACAAAAACACACACACACACCCACAAAAAAA [CACACA_site517],8.71 ± 0.61
15,TACATATAAACAATAACACACACCTAGGTACATGGA [CACACA_site8178],8.72 ± 0.48
16,AAAAAAAAAAAACATACACACACATATATATATATA [CACACA_site8452],10 ± 0.54
17,TAAAAATAAATAAATACATGCACCAAAAATAAATTT [TGCATGCA_site801],9.15 ± 0.16
18,ATTGTTAAATATAATACACACGTTTTTAAAAATATA [CACACA_site5239],8.48 ± 0.47
19,ATTGCCATTGTTAATGCATGTAACAATTCAGCTCAT [TGCATGCA_site56],8.88 ± 0.3
20,AAAATTATTTAGTAAGTGCAAAAAAAAAAAAAAAAA,8.24 ± 0.45
21,AATTTGATTATAAATTGTACATATATATATTAAAAG [XGTACX_site5461],8.56 ± 0.4
22,AAGAAAAAAAAAAAAACACACATATATTTATTTATA [CACACA_site7042],8.06 ± 0.47
23,GAAAGAAAAAATGATGAATAGAGATCAAATCTATAT [XGTACX_negctrl_site28],8.47 ± 0.24

row,Sequence,gcPBM binding intensity (ln)
1,TATACACATAGACACACACACAAAAAAAAAAAAAAA [CACACA_site6338],8.25 ± 0.54
2,TGACATATTATTAGGTGGTCACGTCTCCACGTCAAG [XGTACX_site7943],8.54 ± 0.36
3,TAATTGTACACATGCACACACAAATATTATAGATGT [CACACA_site6528],8.99 ± 0.37
4,TTGAGAAAAATTAATGGTACACATATTATAAGTATA [XGTACX_site6539],8.59 ± 0.45
5,TGTATAACATTTAGGTGTACAATTATATATAATATA [XGTACX_site8131],8.51 ± 0.47
6,TTTTAAAAAAATATAATACACACCAAAAATATGCAC [CACACA_site2131],8.94 ± 0.21
7,AGTAAATTATATATCTGTACATATATATATGTGTAT [XGTACX_site5519],8.64 ± 0.35
8,AAAAATTCATTTTTATGTACGTACAAATTCTTCGTT [XGTACX_site2471],8.66 ± 0.26
9,ACTATATATATAAGTGCATGTTCATTATACCTAAAG [TGCATGCA_site696],8.75 ± 0.42
10,CTCACAAATGAATACACACAAACATATATATTTATA [CACACA_site1620],8.52 ± 0.49
11,AAAAAAATATAAATACGTACATATATATATATATAT [XGTACX_site432],10.2 ± 0.46
12,CTATTCTATTTTTATTGTACATATATATAATTTGAA [XGTACX_site389],8.41 ± 0.21
13,ACACATGAATATTGTAGTACGGCAATTAATATAATA [XGTACX_site4589],8.59 ± 0.38
14,ATATAATGGCTAAATAGTACAATATAATATTTTTTA [XGTACX_site8922],8.06 ± 0.35
15,TGGAATAATACGCGTACACACATATAAATATTAATA [CACACA_site6211],8.78 ± 0.38
16,AGAAAGGAAAAAACCTCACACATGCTTTTAATAGTA [CACACA_site4602],8.32 ± 0.49
17,AAATTCGTTATAAAAACATGCAACGATCAACATTGT [TGCATGCA_site844],8.64 ± 0.35
18,TTACTCTTTATATAATGTACATATATATATATATTA [XGTACX_site2624],8.63 ± 0.3
19,GTGTGGAGTTACAAAGAGGAGAACCTCACAGTAATC [CACACA_negctrl_site527],8.55 ± 0.35
20,TTTTTTATATTGTGATGTACAAATTTTAAAATGTAG [XGTACX_site1875],8.48 ± 0.18
21,ATATATATATATATAATACACACTTATGAAATGTCT [CACACA_site1827],10.2 ± 0.17
22,TTATGTGATAAAAAAAAAATACAACAAAGTTAAATA [GTGCAC_negctrl_site36],8.42 ± 0.41
23,TTACACATATTTTTAATTATTCTGAATTCAAAAAAA [CACACA_negctrl_site1706],8.18 ± 0.39

row,Sequence,gcPBM binding intensity (ln)
1,ATAATCATAAAATAAACACACATATATAAATATATT [CACACA_site276],8.27 ± 0.47
2,GTAATATTAAAATATACACACATAGAATATATATAT [CACACA_site4391],9.51 ± 0.14
3,GTATATATTTCCAGAAGTACTTATTTTTATGTATGT [XGTACX_site4079],8.8 ± 0.47
4,TGAAAAAAGAAAAATACACACATATAACATAATATA [CACACA_site7126],8.5 ± 0.52
5,AATCTATATTAATACACACACACATATATTTATATA [CACACA_site7732],8.55 ± 0.38
6,TTTATTTTGACAGATTGTACACTTTATACATGTTTT [XGTACX_site2356],8.8 ± 0.44
7,AAAACACGCGGACACACACACACACCCACCCATATA [CACACA_site8688],8.68 ± 0.48
8,TTTTAATATTTTGCCTGTACATAAAAGTGAGAAGAT [XGTACX_site2503],9.03 ± 0.3
9,TGATTACATATGATGTGTACCTAATTTTGTTTACAC [XGTACX_site7032],8.59 ± 0.29
10,AAAAATGCCAGAAAACGTACTCGGATTTTCTAATAT [XGTACX_site6552],8.45 ± 0.33
11,TTATATTTATTGATATGTACATATTATAATTAATTA [XGTACX_site586],8.54 ± 0.38
12,AAATAGTTCATAAAAAGTACAAAATTTTTATCCGTA [XGTACX_site2796],8.44 ± 0.41
13,ATCATTCATTTAACAACACACAACATATTTATCATA [CACACA_site1041],8.57 ± 0.35
14,TATAAAGGTTGGTACTGTACAATATAAGAAAAAAAA [XGTACX_site435],8.82 ± 0.47
15,TATATATTATATAAGAGTACATATAATTATAGTTTT [XGTACX_site5039],8.37 ± 0.33
16,ATAAAACAAGCAAATCGTACAAAAGGATAATATATA [XGTACX_site5592],8.9 ± 0.32
17,TTAGGTAGAAAAAAGACACACACATTATATATATAT [CACACA_site8016],9.75 ± 0.28
18,ATATATATTTAAGAGGGTACAAAAATTTATGAGCAT [XGTACX_site6156],8.78 ± 0.49
19,AAAAAAAAAAAAAACACACACACACCCATACCCATA [CACACA_site5577],8.61 ± 0.35
20,ATGTATGGTTTATATGTTCATTTGTTCACCTATTTA [CACACA_negctrl_site1533],8.95 ± 0.47

# Source: the supplement of paper PMC11417369
